Measurements reported in the supplement of paper PMC3334620.
The full ranking holds about 33,000 sequences; the median of “E-score (-0.5 to 0.5)” is about -0.036, and the highest 2% start at about 0.37. This is one part of the list.

target: T1, Yer064c (UniProt P40041); assay: PBM E-score (8-mer binding enrichment) (E-score (-0.5 to 0.5)); higher = stronger / more preferred TF binding; most listed sequences are background and not binding sites; settings: protein concentration: 200 nM; construct: GST-full length
T1 sequence: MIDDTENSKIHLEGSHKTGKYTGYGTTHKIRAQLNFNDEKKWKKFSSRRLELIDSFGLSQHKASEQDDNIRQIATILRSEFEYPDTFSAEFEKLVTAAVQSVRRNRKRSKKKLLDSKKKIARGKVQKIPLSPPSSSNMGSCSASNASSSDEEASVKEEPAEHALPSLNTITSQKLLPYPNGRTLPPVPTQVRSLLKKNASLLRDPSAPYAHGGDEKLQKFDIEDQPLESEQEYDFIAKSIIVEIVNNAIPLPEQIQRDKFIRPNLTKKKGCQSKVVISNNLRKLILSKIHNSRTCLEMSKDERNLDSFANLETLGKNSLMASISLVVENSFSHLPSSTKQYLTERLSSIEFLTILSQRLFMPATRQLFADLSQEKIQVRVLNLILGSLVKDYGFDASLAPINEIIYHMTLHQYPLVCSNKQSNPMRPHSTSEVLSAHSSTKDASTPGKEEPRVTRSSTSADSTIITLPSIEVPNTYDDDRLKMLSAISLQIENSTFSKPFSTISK
Summary of the method: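 Yeast transcription factors carrying a GST tag, as full-length proteins or DNA-binding domains, were produced by PURExpress in vitro transcription/translation. About 100-200 nM protein was applied to universal all-10-mer Agilent arrays, double-stranded by primer extension on fresh or once-stripped slides. Bound protein was detected with fluorescent anti-GST, and scans were normalised with masliner. The Universal PBM Analysis Suite gave each ungapped eight-base word, pooled with its reverse complement, an E-score, a modified Wilcoxon-Mann-Whitney statistic.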

| Sequence | PBM E-score |
| --- | --- |
| AATCGGCG | -0.198 |
| CACTGCAA | 0.0572 |
| CGCCCGGA | -0.175 |
| GGTTCCAC | -0.134 |
| ATTGGGCA | -0.301 |
| AGTTTCCG | -0.0535 |
| CAGTCTAG | 0.0103 |
| ACGGCCCA | -0.251 |
| ATCGCTGG | 0.0196 |
| CTAGGTCA | 0.273 |
| TGAATCAA | 0.419 |
| ATCATCTC | 0.294 |
| ACGTAGAA | 0.133 |
| AAACACCA | -0.00761 |
| GTTCAACA | -0.0217 |
| ATTCCACA | 0.0717 |
| AAAGTCTA | -0.0187 |
| ACTGACGC | -0.0857 |
| GAGAACAA | -0.0452 |
| CACCTTCC | -0.0917 |
| CCCATCAA | -0.00541 |
| TGCTGCCA | -0.325 |
| GTATAGGA | 0.00398 |
| AAGTTCCC | -0.163 |
| GCCCCAGC | -0.293 |

| Sequence | PBM E-score |
| --- | --- |
| AGGACTTG | 0.0575 |
| GCGAAGGA | -0.134 |
| ACGAGCGT | -0.0803 |
| CGTCTGGA | -0.00704 |
| AGCCATGC | 0.206 |
| AACTTAGA | -0.0311 |
| AGATGGGG | -0.242 |
| GGATCCTA | -0.217 |
| ATTTCCAA | -0.0555 |
| AAATAGCA | -0.119 |
| GACATTGA | 0.0816 |
| CCATCCAG | -0.139 |
| CTCGCGGA | 0.145 |
| AGCTTTAT | -0.108 |
| AGCTCACA | 0.104 |
| CACTAGAC | 0.0218 |
| ACTGCTAA | 0.059 |
| ATAGTGCA | -0.0217 |
| CCAACCGA | 0.0381 |
| AGGCCCCA | -0.324 |
| GATGCAGA | -0.0836 |
| CCTGAACG | -0.212 |
| CTAACGAG | 0.013 |
| ACACACAA | 0.0611 |
| CGAGGACC | -0.106 |

| Sequence | PBM E-score |
| --- | --- |
| AGCTGAGG | -0.0711 |
| CCGGTTCG | -0.206 |
| CGAGCGCC | -0.232 |
| ACCCCTAA | -0.0884 |
| ACAAACGT | -0.117 |
| ACAAAGGT | -0.0848 |
| GTTAAAAC | -0.0289 |
| TTCTAAAA | -0.00587 |
| CATAACGG | 0.00763 |
| CGCGTTAC | -0.196 |
| GACCTAGA | -0.0369 |
| CGTCCTAA | 0.129 |
| CATTTCCC | -0.0886 |
| ATAATGCC | 0.045 |
| TACTCTGA | 0.156 |
| GCGTGCAC | -0.0897 |
| ATGTTGGA | 0.109 |
| GATACATC | 0.0889 |
| ATGTCTAC | 0.197 |
| AAAAAACT | 0.0554 |
| GGTTTTCA | -0.0126 |
| GCTTTCCA | -0.116 |
| ACTTTAGC | 0.104 |
| AGGGGAAC | -0.202 |
| CTCCAAAG | 0.103 |

| Sequence | PBM E-score |
| --- | --- |
| AAGATGCC | -0.214 |
| AGGTATGG | -0.0916 |
| CCTACTCG | -0.0344 |
| CATAAACC | 0.113 |
| AGGCCGAG | -0.0585 |
| TGGCTGAA | -0.00309 |
| ATGTCGGG | -0.0729 |
| CAGATCGA | 0.00612 |
| GGAAATGA | 0.0982 |
| GATAAGGA | 0.0693 |
| AACAACTG | -0.0896 |
| AACACTAA | 0.0299 |
| CGCTAGCA | -0.243 |
| AATCACGT | 0.382 |
| GCACGAAC | 0.0225 |
| AGAGCACG | -0.101 |
| CCATCTAA | -0.0644 |
| GGAATCAC | 0.418 |
| AAATTAAG | 0.00171 |
| AGTTATTA | 0.0831 |
| CCATGCGG | -0.154 |
| CTATAACC | -0.119 |
| CTTCCTGC | -0.031 |
| CAGTGCTA | 0.0366 |
| GTCATGCA | 0.268 |

| Sequence | PBM E-score |
| --- | --- |
| CCCCCACG | -0.0968 |
| ACATCGGA | 0.0356 |
| AGCCTGTG | -0.177 |
| CACTGCCG | -0.131 |
| GACTTTAA | 0.248 |
| ATCTCTAC | -0.0637 |
| AGACAGGG | -0.179 |
| ACAACTTA | 0.0367 |
| ACCTTGTG | 0.0552 |
| ATAACAAA | 0.0086 |
| GTCCGTTA | -0.081 |
| CGAATAGC | -0.0407 |
| AAAATACA | 0.0146 |
| CAGTCACC | 0.423 |
| GAAGGGCA | -0.131 |
| ACGGGTCT | -0.178 |
| AGGATTTC | -0.125 |
| AAGTAGCA | 0.0502 |
| CCTGTCAG | -0.151 |
| ATGGAACC | -0.145 |
| ACTGCGCC | 0.0541 |
| ACCCCTCT | -0.138 |
| AGCTAGAG | -0.0815 |
| CGGCTTTC | -0.119 |
| ACTCCTTC | 0.189 |

| Sequence | PBM E-score |
| --- | --- |
| ACCGTGTG | 0.0319 |
| GAGGTCTA | -0.143 |
| AATTACTC | 0.154 |
| CGCAATCC | -0.0183 |
| GTTAGGCA | -0.0628 |
| ACTGTCAG | -0.0261 |
| CGTTGGCA | -0.141 |
| AACATCGT | -0.133 |
| CTAGAGAC | -0.0425 |
| AACTACCG | -0.178 |
| GACCTCTC | -0.207 |
| CTCGGAAG | 0.0813 |
| GATAAACC | -0.00797 |
| GGGGTTGA | 0.112 |
| ACATGTGC | 0.0387 |
| CGGGTCGA | -0.00387 |
| AAAGGGTG | -0.155 |
| CCTACCGA | -0.0791 |
| GATGCTGC | -0.173 |
| ACGGATTG | -0.309 |
| GCATTGCA | 0.0189 |
| AAGGGCAC | -0.236 |
| CGGAGTCC | 0.307 |
| CGCGGCTA | -0.0469 |
| ACGCAACC | -0.121 |

| Sequence | PBM E-score |
| --- | --- |
| CTCTAAAG | -0.0556 |
| AGCTCATG | 0.072 |
| ACTCATAA | 0.375 |
| CTGACGCC | -0.216 |
| CTGCCCCC | -0.144 |
| AAAGGTAG | -0.172 |
| ACCACCTA | -0.107 |
| ATCCCTAG | 0.0111 |
| ACGCGGTC | -0.0557 |
| CACTGAAC | 0.048 |
| AGGACTCC | 0.335 |
| AGCTTGCC | -0.256 |
| AACGAGCC | -0.115 |
| CGCCCCAC | -0.235 |
| AGTATATA | 0.183 |
| GCGATGGA | -0.103 |
| CCACTAGA | -0.195 |
| AGACTGTC | 0.149 |
| CCGGCTAC | -0.233 |
| ACGTGGAG | -0.189 |
| CCCACGAG | 0.0381 |
| CTTGCCTC | -0.113 |
